# PubChem BioAssay AID1347073 (National Center for Advancing Translational Sciences (NCATS), 2019)
# Screen size: about 45,000 compounds; about 200 (0.44%) were called active. Another 7% or so got no clear call; they are omitted. Calls come from the whole dose curve; as a rule, active = well fitted activation curve with a large enough effect; inconclusive = small, poorly fitted or top-dose-only effect; inactive = no such curve, though single readings can be large or run the other way. The list shows a part of the results.
# Test: qHTS of TDP-43 Inhibitors: NCGC Sytravon Library Screen; note: nearly all actives have a fitted effect of over 55% in size; for growth rescue (activation): 0% is about no effect
# Details: yeast TDP-43 toxicity rescue, BacTiter-Glo growth, 24 h; series mostly up to 46.1 µM; growth rescue (activation): at the top concentration
# How it was run: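 TDP-43-expressing yeast, pregrown in raffinose, seeded at OD600 0.02 in galactose medium with compound for 24 hr at 30 deg C. Growth read by BacTiter-Glo luminescence, so rescue of toxicity appears as activation.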
# Potency is the fitted concentration of half-maximal effect.
SMILES,growth rescue (activation),Potency
CN1CCN(C2CCN(S(=O)(=O)c3ccc(C(C)(C)C)cc3)CC2)CC1,inactive: 12.2%,–
O=C(COC(=O)/C=C/c1ccccc1[N+](=O)[O-])NCC(F)(F)F,inactive: -3.52%,–
COc1ccc(Nc2ccc(OC)cc2)cc1,inactive: 10.8%,–
CCOC(=O)c1cc2c(ccn2C)n1Cc1ccc(Cl)cc1,inactive: 9.49%,–
CCC(C)Oc1ccc(/C=C/c2[nH]c(=O)[nH]c(=O)c2[N+](=O)[O-])cc1OC (stereo not drawn),inactive: -15%,–
COc1ccc(CC(=O)Nc2ccc(S(=O)(=O)Nc3nccs3)cc2)cc1,inactive: 3.66%,–
Cc1nc2nc(C)c(NS(=O)(=O)c3ccc(CC(C)C)cc3)c(=O)n2[nH]1,inactive: -11%,–
Cc1cccc(/C=N/N(CCO)C2=NS(=O)(=O)c3ccccc32)c1,inactive: 0.674%,–
CC(C)c1ccc(/C=N/NC(=O)C(=O)NCCCN2CCOCC2)cc1,inactive: -7.92%,–
Cc1ccc(NC(=O)CN2CCc3ccccc3C2)cc1F,inactive: -31.9%,–
COc1ccccc1CC(NC(C)=O)C(=O)NC1CCN(C(=O)Nc2ccccc2Cl)CC1 (stereo not drawn),inactive: -5.2%,–
Nc1ccccc1N=Cc1ccc(-c2cccc(Cl)c2)o1,inactive: 15.9%,–
NC(=O)C1CCN(C2OC(=O)c3ccccc32)CC1 (stereo not drawn),inactive: 13.2%,–
CC1(Cc2ccc(Cl)cc2)C(=O)Nc2c(Cl)ccc(Cl)c21 (stereo not drawn),inactive: -11.9%,–
CN1C(=O)c2ccccc2C(C(=O)O)C1c1cccc([N+](=O)[O-])c1 (stereo not drawn),inactive: 10.4%,–
O=C(Nc1ccc2c(c1)OCO2)c1cc(-c2cccnc2)nc2ccccc12,inactive: 6.48%,–
COc1ccc(S(=O)(=O)Nc2ccc(NC(C)=O)cc2)cc1Br,inactive: -0.799%,–
COC(=O)c1cc(Sc2cccc(Cl)c2Cl)ccn1,–,active: 12.6 µM
O=C(CNC(=O)c1cccs1)N/N=C/c1ccccc1[N+](=O)[O-],inactive: 4.56%,–
CC(Cn1cncn1)C(=O)N1CCN(S(=O)(=O)c2ccc(Cl)cc2)CC1 (stereo not drawn),inactive: 19.2%,–
CC(C)(C)c1ccc(S(=O)(=O)Nc2ccccn2)cc1,inactive: 4.06%,–
S=C(NCc1ccccc1)Nc1ccc2cn[nH]c2c1,inactive: -9.69%,–
Cc1occc1-c1nnc(SCC(=O)NCCc2ccccc2)o1,inactive: 11.9%,–
CCC[n+]1c2ccccc2cc2ccccc21,inactive: 18%,–
CN(Cc1cc([N+](=O)[O-])ccc1Cl)C(=O)C[n+]1ccccc1,inactive: 4.22%,–
O=C(Nc1ccc(S(=O)(=O)Nc2ccnn2-c2ccccc2)cc1)C(F)(F)F,inactive: -7.45%,–
Cc1ccc(NC(=S)N(CCN2CCCCC2)Cc2ccco2)cc1C,inactive: -8.07%,–

SMILES,growth rescue (activation),Potency
CCOc1ccc2[nH]c(C(=O)N/N=C/c3cc(OC)c(OC)c(OC)c3)cc2c1,inactive: 7.69%,–
CCc1ccc(S(=O)(=O)Nc2cc(SCC(=O)O)c(O)c3ccccc23)cc1,inactive: 8.76%,–
COC(=O)c1ccccc1NC(=O)[C@H]1O[C@@H]2OC(C)(C)O[C@@H]2[C@H]2OC(C)(C)O[C@H]21,inactive: 16.3%,–
O=[N+]([O-])c1ccc(O)c(Nc2c([N+](=O)[O-])ccc3nonc23)c1,inactive: -1.62%,–
CC(=O)Nc1ccc(NC(=O)CCCc2c[nH]c3ccccc23)cc1,inactive: -12.5%,–
COCCCNC(=O)c1sc2ncn(CC(=O)Nc3ccc(C)c(Cl)c3)c(=O)c2c1C,inactive: 11.9%,–
O=C(NCCCN1CCOCC1)c1ccc(CSCc2cccc(Cl)c2)o1,inactive: 4.63%,–
COc1ccc(N(CC(=O)Nc2ccc3c(c2)OCO3)S(=O)(=O)c2ccc(F)cc2)cc1,inactive: -15.2%,–
CCN(CC)CCNC(=O)c1ccc(NC(=O)/C=C/c2cc(OC)c(OC)c(OC)c2)cc1,inactive: 12.3%,–
Cc1ccc(NC(=O)Cc2nnc(SCC(=O)NC3=NCCS3)n2C)cc1,inactive: 12.4%,–
CCCCOc1nc(N2CCOCC2)nc(C)c1[N+](=O)[O-],inactive: 10.2%,–
CCN(C(=O)CN1c2ccccc2CC1C)c1c(N)n(Cc2ccccc2)c(=O)[nH]c1=O (stereo not drawn),inactive: -0.713%,–
CCn1cc(CN(C)S(=O)(=O)c2cccc([N+](=O)[O-])c2)cn1,inactive: -1.36%,–
Cc1ccc2nc(/C=C/c3cccc(F)c3)ccc2c1,inactive: 27.2%,–
COCCn1c(=S)[nH]c2sc3c(c2c1=O)CCC(C)C3 (stereo not drawn),inactive: 17.1%,–
CCOc1ccc(N2CC(C(=O)Nc3cc(C)on3)CC2=O)cc1 (stereo not drawn),inactive: -6.19%,–
Cc1ccc(/C=C/C(=O)Nc2ccncc2)o1,inactive: -2.94%,–
COc1ccc(-c2cc(C(F)F)n3ncc(C(=O)n4ccnc4C)c3n2)cc1,inactive: -25.3%,–
COc1ccc(NC(=O)NC2(C(=O)N3CCCCC3)CCCCC2)cc1,inactive: 1.68%,–
COc1ccc(S(=O)(=O)CC(=O)Nc2ccccc2Cl)cc1,inactive: 5.86%,–
COc1cccc(C(O)c2ncc(-c3cccc(F)c3)[nH]2)c1 (stereo not drawn),inactive: 7.05%,–
Cc1cc(N/N=C/c2ccc(O)cc2O)nc(N2CCOCC2)n1,inactive: 6.69%,–
O=c1[nH]c(SCc2nc3ccccc3c(=O)n2-c2ccccc2)nc2ccccc12,inactive: 16.5%,–
Cc1ccc(S(=O)(=O)N2CCN(C(=O)c3ccc4c(c3)OCO4)CC2)cc1,inactive: -2.11%,–
CN(Cc1cn(-c2ccccc2)nc1-c1ccc(Cl)cc1)C(=O)CCC(=O)O,inactive: -0.249%,–
Cc1ccsc1C(=O)N1CCC1(C)C(=O)NS(=O)(=O)c1ccccc1 (stereo not drawn),inactive: -10%,–
